Whole data set: some 110,000 compounds, median “z-score” near -0.1, cut for the highest 2% near 2. Some of the results follow. The source made the active and inactive calls.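 How the source made its calls: active means z-score in the third read window above 3 or below -3; inactive means the rest.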
These compounds were tested against Metabotropic glutamate receptor 8 (Rattus norvegicus) (UniProt P70579) (assay: mGluR8 Gi/Go-coupled signaling modulation – cell-based, rat, thallium flux, HTS, primary screen (AID 488969)). Details: HEK293 rat mGluR8, GIRK (G protein-gated inwardly rectifying potassium channel) thallium flux, FluoZin2; at 10 µM; stronger effect = higher value; submaximal glutamate (EC20) added with thallium.
Chain of UniProt P70579 (P70579 whole entry, looked up): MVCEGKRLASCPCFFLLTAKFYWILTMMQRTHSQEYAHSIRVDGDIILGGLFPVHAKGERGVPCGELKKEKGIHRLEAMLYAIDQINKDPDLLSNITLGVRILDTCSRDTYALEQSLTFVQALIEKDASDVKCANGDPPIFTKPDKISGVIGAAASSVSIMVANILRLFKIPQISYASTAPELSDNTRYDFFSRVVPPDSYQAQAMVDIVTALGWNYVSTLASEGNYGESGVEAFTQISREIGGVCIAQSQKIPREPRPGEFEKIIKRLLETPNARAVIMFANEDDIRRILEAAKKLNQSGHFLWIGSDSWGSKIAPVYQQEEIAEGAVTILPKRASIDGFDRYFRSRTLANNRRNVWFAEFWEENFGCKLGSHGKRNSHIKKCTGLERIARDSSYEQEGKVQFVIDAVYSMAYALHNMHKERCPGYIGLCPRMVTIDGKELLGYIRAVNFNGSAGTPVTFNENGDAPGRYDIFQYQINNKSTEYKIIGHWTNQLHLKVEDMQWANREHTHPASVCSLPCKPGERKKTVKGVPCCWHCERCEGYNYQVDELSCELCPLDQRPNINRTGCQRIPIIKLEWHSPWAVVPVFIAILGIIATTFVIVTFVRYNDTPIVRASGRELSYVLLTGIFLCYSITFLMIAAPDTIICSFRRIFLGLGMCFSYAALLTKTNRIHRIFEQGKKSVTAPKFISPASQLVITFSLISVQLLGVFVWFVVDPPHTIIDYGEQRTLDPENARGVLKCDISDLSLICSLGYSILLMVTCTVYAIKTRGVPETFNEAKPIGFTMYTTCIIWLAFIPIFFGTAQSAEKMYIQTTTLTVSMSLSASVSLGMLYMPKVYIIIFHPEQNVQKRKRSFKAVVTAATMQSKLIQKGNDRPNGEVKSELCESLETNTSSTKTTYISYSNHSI

SMILES | z-score
CN(C)c1cccc2c(C=C(C#N)C#N)ccc(N(C)C)c12 | -0.0912
CCc1c(O)nc(SCC(=O)Nc2ccccc2)n(C(C)CC)c1=O (stereo not given) | -0.191
O=C(Nc1ccccc1)O/N=C1\CCCCC1c1ccc([N+](=O)[O-])cc1[N+](=O)[O-] (stereo not given) | -0.435
COC(=O)C(O)(CC(=O)Nc1ccc(OC)cc1)C(F)(F)F (stereo not given) | -0.0368
COc1ccc(/C(N)=N/O)cc1O | -0.138
CCCN1CCC(NC(=O)Nc2ccc(OC)c(OC)c2)CC1 | 0.00828
O=C(CNc1ccccc1)N/N=C/c1ccc2c(c1)OCO2 | -0.247
O=C(NNC(=O)c1cc2c(s1)CCCC2)c1ccccc1 | 0.395
COc1ccc2c(c1)C(C)=CC(C)(C)N2C(=O)Nc1ccccc1 | -0.44
Cc1[nH]n(-c2ncc(-c3ccccc3)s2)c(=O)c1C(c1ccc(Br)cc1)C(C#N)C#N (stereo not given) | 0.397
COc1ccc(CNC(=O)C2CCCN(S(=O)(=O)c3c(C)n[nH]c3C)C2)cc1 (stereo not given) | -0.287
CCCOc1ccccc1Nc1nnc(C)c(=O)[nH]1 | 0.409
COc1ccc(-c2cc(C(=O)Nc3cc(OC)c(OC)c(OC)c3)no2)cc1OC | 0.558
CO/N=C(/CS(=O)(=O)c1ccc(C)cc1)c1ccc(OC)cc1 | -0.113
Cc1ccc(S(=O)(=O)N2CCCC2C(=O)N(C)Cc2cccs2)cc1 (stereo not given) | 0.127
CC1=C(C#N)c2nc(N)c(C#N)c(C)c2/C1=C\c1ccc(C)cc1 | -0.932
CC(NC(=O)CSCc1ccccc1Br)c1ccccc1 (stereo not given) | -0.331
CC(=O)Nc1ccc(Oc2nc(C)cc(C)n2)cc1 | 0.187
Cc1ccnc(NC(=O)CCC(=O)N(CC(=O)NCC2CCCO2)Cc2ccc(F)cc2)c1 (stereo not given) | -0.21
Cc1sc(=NC(=O)c2ccco2)n(C)c1-c1ccccc1 | -1.03
CN(CCCNC(=O)Cn1cc2c(n1)CCCC2)C1CCCCC1 | -0.148
C[C@H](NS(=O)(=O)c1ccc(Cl)c(Cl)c1)C(=O)OCc1cc(=O)n2cc(Br)ccc2n1 | 0.313

SMILES | z-score
O=C(CSc1ccc2nnc(-c3ccccn3)n2n1)NCc1ccco1 | -0.383
Cc1nnsc1C(=O)Nc1ccc(Cl)cc1Cl | -0.0382
COc1ccc(/C=N/OCC(=O)N(Cc2ccc(OC)cc2)c2ccccc2C(=O)O)cc1 | -0.615
COC(=O)CCC(=O)Nc1cc(S(=O)(=O)Nc2ccc(Cl)cc2)ccc1N1CCOCC1 | 0.147
CCOc1ccc2nc(NS(C)(=O)=O)sc2c1 | 0.859
Cc1ccc(F)cc1NCC(=O)Nc1ccc(Cl)cc1F | -0.36
CCC1(C)Nc2ccccc2C(=O)N1O (stereo not given) | -0.11
O=S1(=O)N=CN(Cc2cccc(F)c2)c2ccccc21 | -0.858
COc1ccc([N+](=O)[O-])cc1NC(=S)Nc1ccccc1 | 0.443
Cc1c(C(=O)NN2CCN(C)CC2)cccc1[N+](=O)[O-] | 0.315
O=c1cc(N2CCCCC2)c(-c2ccccc2)nn1Cc1c(Cl)cccc1Cl | -0.0943
COc1ccc(/C=C/C(=O)Nc2cc(C)nn2-c2nc3ccccc3[nH]2)cc1 | -0.199
Cc1cnc(C(=O)Nc2nnc(C(C)C)s2)cn1 | 0.817
Cc1c(C(=O)N/N=C/c2cccs2)nc2ccccn12 | -0.0796
COc1ccc(C2C3=C(CC(C)(C)CC3=O)Oc3ncn(CCO)c(=N)c32)cc1OC (stereo not given) | 0.234
COC(=O)c1ccc(C)c(NC(=O)CCc2ccc(OC)c(OC)c2)c1 | -0.242
Cc1ccc(NC(=O)C2CC(=O)OC23CCOC(C)(C)C3)cc1 (stereo not given) | -0.427
Cc1cccc(C(=O)N2CCN(C(=O)c3cccc(C)c3)C(C)C2)c1 (stereo not given) | -0.688
CC1CCCCN1c1ncnc2ccccc12 (stereo not given) | -0.0781
Cc1ccc(NS(=O)(=O)c2ccc(NC(=O)c3cccs3)cc2)cc1 | 0.0709
Cn1c(=Nc2ccccc2)sc2ccccc21 | -0.206
Cn1c(SCC(=O)N2CCOCC2)nnc1-c1cccc(NC(=O)c2ccccc2F)c1 | -0.0191

SMILES | z-score
CC(=O)Nc1ccc2c(CSc3nnc(-c4cccnc4)n3-c3ccc(C)cc3C)cc(=O)oc2c1 | -0.955
COc1ccc(CCN(C(=S)Nc2ccccc2)C2CC(=O)N(c3ccccc3)C2=O)cc1 (stereo not given) | -0.371
FC(F)(F)c1cc(-c2ccccc2)nc(N2CCOCC2)n1 | -0.152
COc1ccc(NC(=O)CSc2nnc(-c3ccncc3)n2CC2CCCO2)c(OC)c1 (stereo not given) | 0.543
COc1ccc(C(=O)Nc2c(Cl)cc(Cl)cc2C(=O)NCCN2CCOCC2)cc1 | -0.486
CCC(=O)Nc1ccc(C(=O)n2ccc(C)n2)cc1 | 0.233
COCCCN=C1NN=C(c2cc(C)n(Cc3ccco3)c2C)CS1 | 0.0171
N#CC(c1cccc(Cl)c1)c1ccc2c(C(F)(F)F)cc(C(F)(F)F)nc2n1 (stereo not given) | active: 10.5
CCCC12CN3CC(CCC)(CN(C1)C3C(O)C(O)C(O)CO)C2=O (stereo not given) | 0.565
CC(C)(C)NC(=O)C(c1ccncc1)N(Cc1cccs1)C(=O)Cn1nnc(-c2ccc(F)cc2)n1 (stereo not given) | -0.465
N#Cc1cccc(NC(=O)CCC2CCCC2)c1 | 0.0235
CCc1ccc(NC(=O)c2ccc3nc(N)sc3c2)cc1 | -0.53
Cc1ccc(-n2ncc3c(=O)n(Cc4cccnc4)cnc32)cc1 | -0.666
O=C(CSc1nc2ccccc2c(=O)[nH]1)N1CCCCC1 | -0.158
Cc1ccc(S(=O)(=O)N(C)CC(=O)Nc2nc3ccccc3s2)cc1 | 0.716
N#CC1=C(N)Oc2cc(N)ccc2C1C1CCCCC1 (stereo not given) | 0.0181
N=C1C(c2nc3ccccc3s2)=C(O)CN1Cc1ccccc1 | 0.0639
COc1ccc(C(=O)CSc2nnc(-c3cc4ccccc4cc3O)n2Cc2ccco2)cc1 | 0.923
CCN(c1ccccc1)S(=O)(=O)c1ccc(Cl)c(NC(=O)CSc2ncn[nH]2)c1 | -0.854
O=c1[nH]n2c(=O)c3c([nH]c2c1N=Nc1cccc(Cl)c1)CCCC3 | -2.43
Cc1ccc(-n2nc(C)c(/C=N/NC(=O)c3cccnc3)c2Cl)cc1 | -0.239
NC(=O)COc1c(-c2ccccc2)oc2ccccc2c1=O | 0.0735

SMILES | z-score
O=C(CCN1C(=O)C2C3C=CC(C3)C2C1=O)N1CCN(c2ccccc2Cl)CC1 (stereo not given) | -0.0556
Oc1ccc(-c2nc3ccc4ccccc4c3c3c2CCC3)cc1O | -0.202
COc1ccc(OCC(=O)OCCNC(=O)c2cccnc2)cc1 | -0.0576
O=C1C(=Cc2cccn2-c2ccc(O)cc2)C(=O)c2ccccc21 | -0.204
COc1ccc(NC(=O)CSc2nnc(-c3ccccn3)n2N)cc1Cl | -0.222
FC(F)(F)C(F)(F)C(F)(F)c1nnc2ccc(N3CCOCC3)nn12 | -1.11
CCC(CC)c1nnc(NC(=O)c2cc(-c3ccccc3)nc3ccccc23)s1 | -0.847
CCn1c(CNC(=O)COC)nc2ccccc21 | -0.318
O=c1/c(=C\c2ccc(O)cc2)sc2n1C(c1ccccc1)C(c1ccccc1)=NN=2 (stereo not given) | -0.706
COc1ccc(-c2nsc3c(SCc4ccccc4)ncnc23)cc1 | -0.933
CNCC/C=C1/c2ccccc2CSc2ccccc21 | 1.44
O=C1CSC(c2ccc3c(c2)OCO3)N1c1ccc(Oc2ccccc2)cc1 (stereo not given) | 0.205
COc1ccc(/C(C)=N/Nc2ncc(Cl)cc2Cl)c(O)c1 | -0.165
COc1ccc(N2CCN(C(=O)c3cc4c(-c5ccc(Cl)cc5)nn(C)c4s3)CC2)cc1 | -0.384
COc1cc(CN(C)CC(=O)c2[nH]c(C)c(C(C)=O)c2C)ccc1OC(F)F | -0.206
CCC1(C)Cc2c(sc3c2c(=O)n(C)c2nnc(SCc4ccccc4)n32)CO1 (stereo not given) | -0.196
CCCCn1nnc(NC(=O)COc2cc(C)ccc2C(C)C)n1 | 1.04
CCOc1cc(/C=N/O)ccc1OCc1ccc([N+](=O)[O-])cc1 | 0.209
Cc1ccc(-c2cc(-c3ccccc3O)nc(N/N=C/c3cccnc3)n2)cc1 | -0.278
COc1ccc(S(=O)(=O)N(CCCN2CCOCC2)Cc2ccc(OC)c(OC)c2)cc1 | -0.348
CC(C)C(=O)NC(=S)NCC(=O)c1ccccc1 | -0.37
Clc1ccc(-c2nnc(SCc3nc4ccccc4[nH]3)o2)c(Cl)c1 | -0.09

SMILES | z-score
CC(=O)c1sc(NC(=O)C(C)C)nc1C | 0.531
COc1cc(OC)cc(C(=O)OCC(=O)Nc2ccc(N3CCCCC3)cc2)c1 | -0.189
OCCn1c(-c2ccc3c(c2)OCO3)csc1=Nc1ccccc1 | 0.143
Nc1nnc(SCC(=O)NC2CCCCC2)s1 | 0.00744
Cc1ccc(-c2cc(C(=O)Nc3ccccc3C)c3ccccc3n2)o1 | 0.279
O=C(CSc1nccn1-c1ccc(F)cc1)NCc1ccc2c(c1)OCO2 | -0.24
COc1ccc(NCc2nnc(SCC(=O)c3ccc(C)cc3)o2)cc1 | -0.148
CC(NC(=O)CSc1nc2ccccc2c(=O)[nH]1)c1ccccc1 (stereo not given) | -0.0409
O=C1c2ccccc2C(=O)N1CC1CCCO1 (stereo not given) | -0.587
NC(=O)CSc1oc(-c2cccs2)nc1S(=O)(=O)c1ccccc1 | -0.275
COc1ccc(CCN2C(=O)c3cccc4cccc(c34)C2=O)cc1OC | 0.603
O=C(Nc1ccc(S(=O)(=O)N2CCOCC2)cc1)c1ccco1 | -0.64
O=C(Nc1cccc(Cl)c1)N1CCN(c2ncccn2)CC1 | -0.84
CC(C)(C)NS(=O)(=O)c1ccc(CCC(=O)Nc2cc(Cl)ccc2Oc2ccccc2)cc1 | 0.0264
Cc1c(C)c2cc(Cl)c(O)c(CN3CCCCC3)c2oc1=O | -0.309
CCc1ccc(NC(=O)C(C)OC(=O)c2ccc(NS(=O)(=O)c3ccc(C)c([N+](=O)[O-])c3)cc2)cc1 (stereo not given) | -0.191
COc1ccc(NC(=O)C2C3C=CC(O3)C2C(=O)NCc2cccnc2)cc1 (stereo not given) | -0.947
O=C(Nc1ccc(Cl)cc1)NC1CCCCC1 | 0.269
CCN(CC)CCCn1c(=S)[nH]c2ncccc2c1=O | 0.102
COCCn1cnc2c1c(=O)n(CC(=O)Nc1cc(C)on1)c(=O)n2Cc1ccccc1 | 0.148
COc1ccc(/C=N/NC(=O)c2[nH]nc3c2CCc2ccccc2-3)cc1OC | -0.649
Cc1ccc(C2C(C=Nc3c(C)n(C)n(-c4ccccc4)c3=O)=C(c3ccccc3)Oc3ccccc32)cc1 (stereo not given) | -0.137

From PubChem BioAssay AID488969 (Vanderbilt High Throughput Screening Facility, 2010)
